Experimental data taken from patent US20210163404A1, “NOVEL UREA COMPOUNDS AND BIOISOSTERES THEREOF AND THEIR USE FOR TREATING INFLAMMATION AND INFLAMMATION-RELATED PATHOLOGIES” (UNIVERSITÉ LAVAL, priority 2017, published 2021).
For part of these data: At least one read-out could not be matched to a standard name with certainty. For part of these data: For at least one compound, name, drawing or mass did not settle the structure.

What was measured:
cancer cells = details: background; in words; cited from earlier work
IL-6 = IL-6 expression in HaCaT cells stimulated with IL-17A and TNFα (ELISA); format: cell-based, human; details: HaCaT stimulated with IL-17α and TNFα, 6 h
Description: The effect of compounds 3a-b, 4a-e, 5a-e and 6a-e on the expression of IL-6 was subsequently assessed using the HaCaT spontaneously transformed aneuploid immortal keratinocyte cell line, stimulated by the addition of IL-17A and TNFα in the culture medium (Table 1). Curcumin and ibuprofen were used as known IL-6 expression inhibitors. DMSO was used for solubilizing the drugs. […] Indeed, the inhibitory effect of these molecules was at least equivalent to that of curcumin [27] and ibuprofen, both recognized as anti-inflammatory drugs. The inhibitory effect of the substituted phenyl cycloalkylureas in accordance with an embodiment of the present disclosure on proinflammatory cytokines was also found at the mRNA level. Indeed, the mRNAs of the cytokines IL-6 and TNF-α as well as the mRNA of the chemokine IL-8 were lowered in TNF-α/IL-17A-stimulated HaCaT cells. Similar results were obtained in THP-1 cells stimulated with LPS where treatments with CHEU and 4e diminished the mRNA levels of the cytokines IL-1B, IL-6 and TNF-α in addition to the mRNA levels of the chemokine IL-8. It is surmised that the anti-inflammatory mechanism of action of the compounds of the present disclosure is likely mediated, at least in part, by modulating the phosphorylation state of the MAP kinase p38. […] Addition of a compound in accordance with an embodiment of the present disclosure, prior to stimulation with the aforementioned cytokines, decreases the level of p-p38 at 30-60 minutes post-stimulation. This diminution in p-p38 levels destabilizes the mRNAs of pro-inflammatory cytokines, non-limiting examples of which include TNF-α and IL-6. Moreover, it is surmised that the effect of the compounds of the present disclosure on p-p38 is potentially mediated by the activation of the phosphatase named DUSP1.
HaCaT cells (1×10^5) were suspended in DMEM culture media (500 μL) and incubated for 24 h in 24-well microtiter plates at 37° C. in a moisture-saturated atmosphere containing 5% CO2. Compounds were solubilized in DMSO and diluted in fresh DMEM. The compound (500 μL) was then added to the cell medium to obtain a final concentration of […] and the cells incubated over a period of 1 hour. In the meantime, IL-17α (200 ng/mL) and TNFα (20 ng/mL) (PeproTech, Rocky Hill, N.J.) were added to the drug solution in DMEM. Following the initial incubation of the cells, the culture medium was aspirated from each well and the IL-17α+ TNFα+ compound solution was added to each well for incubation (6 hours). The culture media was then removed and transferred to a clean tube (1.5 mL) at −80° C. until the ELISA test was performed. The presence of IL-6 in the cell media was determined using an IL-6 human Duoset ELISA kit (Fisher Scientific, Ottawa, On.) according to the manufacturer's instructions. Standards and samples were prepared and assessed in duplicate. Two separate replicates were performed for each sample. The absorbance was measured at 450 nm and 540 nm using a TECAN infinite M1000 plate reader.

CC(C)(C)c1ccc(NC(=O)NCCCl)cc1 [tBCEU, reference compound]
phase of cell cycle arrest of cancer cells (cancer cells): G2/M

CC(C)(C)NC(=O)Nc1cccc(C(C)(C)C)c1 [Compound 11]
Reduction IL-6 (%) (IL-6; Table 5): −41.6%

O=c1c(Nc2cccc(C3CCCCC3)c2)c(NC2CCCC2)c1=O [Compound 81]
Reduction IL-6 (%) (IL-6; Table 7): −34.2%

O=C(Nc1cccc(I)c1)NC1CCCC1 [Compound 40, 1-Cyclopentyl-3-(3-iodophenyl)urea]
Reduction IL-6 (%) (IL-6; Table 6): 49.6%

CCCNC(=O)Nc1ccc(I)cc1 [Compound 3]
Reduction IL-6 (%) (IL-6; Table 5): 16.2%

CC(C)(C)c1ccc(Nc2c(NC3CC3)c(=O)c2=O)cc1 [Compound 82]
Reduction IL-6 (%) (IL-6; Table 7): 10.4%

S=C(NCC1CCC1)Nc1ccc(C2CCCCC2)cc1 [Compound 88]
Reduction IL-6 (%) (IL-6; Table 8): 1.8%

CCCNC(=O)Nc1cccc(C(C)(C)C)c1 [Compound 12]
Reduction IL-6 (%) (IL-6; Table 5): −9.6%

O=C(NCC1CCC1)Nc1ccc(C2CCCCC2)cc1 [Compound 57, 1-(Cyclobutylmethyl)-3-(4-cyclohexylphenyl)urea]
Reduction IL-6 (%) (IL-6; Table 6): 64.0%

CC(C)(C)c1ccc(NC(=S)NC2CCCC2)cc1 [Compound 97]
Reduction IL-6 (%) (IL-6; Table 8): 8.6%

O=c1c(Nc2cccc(I)c2)c(NC2CCCC2)c1=O [Compound 75]
Reduction IL-6 (%) (IL-6; Table 7): −19.3%

CCNC(=O)Nc1ccc(C(C)(C)C)cc1 [Compound 63, 1-(4-(t-Butyl)phenyl)-3-ethylurea]
Reduction IL-6 (%) (IL-6; Table 6): 54.0%
